Here are results for 62 compounds from PubChem BioAssay (NCI).

“And” between values parts separate entries of the source, which are not always exact repeats. Identical values can stand only once.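 Tested at 5 concentrations; 48 h exposure; 96-well plates; endpoints linearly interpolated, else capped at highest concentration. GI50 marks 50% less growth. The concentration for full growth arrest is given as TGI.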 Peptide text beside a SMILES is read from it. * marks the point of attachment. Boc = CC(C)(C)OC(=O)*

The assay deals with NCI-H322M lung. Kind of assay: DTP human tumour cell line panel, 48 h.
On to `CCC1=C[C@@H]2CN(C1)Cc1c([nH]c3ccccc13)[C@@](C(=O)OC)(c1cc3c(cc1OC)N(C)[C@H]1[C@@](O)(C(=O)OC)[C@H](OC(C)=O)[C@]4(CC)C=CCN5CC[C@]31[C@@H]54)C2`, for which the GI50 is below 0.01 µM and the TGI is 20.7 µM. Consider `O=c1sc(Nc2ccc3ccccc3c2Cl)nc2ccccc12`, for which the TGI was above 100 µM. Still for that read-out and setting: the value for `O=C(CCC(=O)Nc1ccc(Cl)cc1)CC(=O)c1ccc2ccccc2c1` was above 100 µM; that for `O=c1ccc2c(Cl)cccc2o1` was above 100 µM. In the case of `CSCCC(NC(=O)Cc1ccc(C(=O)c2ccccc2)cc1)C(=O)N1CCN(CCCCN2c3ccccc3Sc3cc(N=[N+]=[N-])ccc32)CC1` (stereo not given), the TGI was above 100 µM. Same read-out and setting: the value for `COC(=O)[C@H](C)NC(=O)C1(CNC(=O)[C@H](C)NC(=O)OC(C)(C)C)Cc2ccccc2-c2ccccc2C1` was above 88.2 µM; that for `COc1ccc2nc3cc([N+](=O)[O-])ccc3c(NNc3ccc([N+](=O)[O-])cc3)c2c1` was above 100 µM. Still for that read-out and setting: with `N#CC(c1ccccc1)N(CCc1ccccc1)C(=O)c1ccc(C(=O)N(CCc2ccccc2)C(C#N)c2ccccc2)cc1` (stereo not given) the figure was 84.1 µM; with `CCOC(=O)c1cc(C2=CCNC2=O)c(-c2cc(C)no2)[nH]1`, above 100 µM; with `COC(=O)CNC(=O)CNC(=O)CSc1nnc(COc2ccc(Cl)cc2)n1-c1ccccc1`, above 100 µM. Same read-out and setting: with `CCOC(=O)C1=C(C)NC(C)=C(C(=O)OCCNC(=O)c2ccc(N=[N+]=[N-])cc2)C1c1ccccc1C(F)(F)F` (stereo not given) the figure was above 31.6 µM. `O=C(O)CCNc1ncc2c(n1)-c1ccccc1OC2` came in with a TGI above 100 µM. Still for that read-out and setting: the value for `CC(NC(=O)C1CCCN1C(=O)CNC(=O)OC(C)(C)C)C(=O)O` (stereo not drawn) (Boc-Gly-Pro-Ala-OH; configuration not given here) was above 100 µM; that for `O=C1C(Cl)=C(N2CCN(CCOCCO)CC2)C(=O)c2ccccc21` was 37.4 µM; that for `O=C(NC1CCN(Cc2ccccc2)CC1)c1cccc(I)c1` was above 100 µM.

Compound `Cc1ccc(NC(=O)CC(=O)N2N=C(N3CCCCC3)CC2c2ccccc2)cc1` (stereo not given) registered a TGI above 100 µM.

For `O=C(O)C1CC(C2CCCCN2)CN2CCCCC12` (stereo not given), the TGI is above 100 µM. As for `CCNC(=O)Oc1ccc(/C(=C(\C)c2ccc(Cl)cc2)c2ccc(OCCN(CC)CC)cc2)cc1`, the GI50 was 5.36 µM and the TGI turned out to be 18.3 µM. In the case of `CCOC(=O)c1cc(-c2ccc([N+](=O)[O-])cc2)c([N+](=O)[O-])[nH]1`, the TGI is above 10 µM.

In the case of `COc1ccc(NC(=S)C#N)cc1`, the TGI is above 100 µM. The compound `O=C(CC(Cc1ccccc1)c1ccc(Oc2ccccc2)cc1)Nc1cccc(Cl)c1` (stereo not given) displayed a TGI above 100 µM. As for `CNCCCn1c2c(c3ccc(Cl)cc3c1=O)C(=O)c1cc(OC)cnc1-2`, the GI50 was 1.28 µM and the TGI turned out to be 2.54 µM. The compound `CN1CN(c2ccccc2)C2(CCN(C3Nc4ccccc4O3)CC2)C1=O` (stereo not given) came in with a TGI of 85.9 µM. As for `CS(=O)(=O)c1ccc2c(c1)C(=O)c1c-2n(CCCBr)c(=O)c2cc([N+](=O)[O-])ccc12`, the GI50 is above 100 µM and the TGI is above 100 µM. Take `O=C(/C=C\c1cc(Br)ccc1O)/C=C/c1cc(Br)ccc1O`: the GI50 was 1.66 µM and the TGI is 3.38 µM.

In the case of `CC1OC(OC2C(OC(=O)[C@]34CCC(C)(C)CC3C3=CCC5[C@@]6(C)C[C@H](O)[C@H](OC7OC(COC8OC(CO)C(O)C(O)C8O)C(O)C(O)C7O)[C@@](C)(C(=O)O)C6CC[C@@]5(C)C3(C)CC4)OCC(O)C2O)C(O)C(O)C1OC1OCC(O)C(O)C1O` (stereo not given in full), the TGI was above 100 µM. Same read-out and setting: the value for `O=C(CN(Cc1ccccc1)Cc1ccccc1)N1CCc2c([nH]c3ccccc23)C1c1cccnc1` (stereo not given) was above 100 µM. Still for that read-out and setting: the value for `O=C1NC(=S)N/C1=C\c1ccc(Cl)cc1` was above 100 µM. Take `Cc1cc(O[C@@H]2O[C@@H](C)[C@H](O)[C@@H](O)[C@H]2O)c2c3c(c(O[C@@H]4O[C@@H](C)[C@H](O)[C@@H](O)[C@H]4O)cc2c1)C(=O)c1c(O)cccc1C3=O`: the GI50 is above 30 µM and the TGI is above 30 µM.

`O=C[C@]12CC=C3OC4OC5(CCCCC5)OC4[C@H]3[C@H]1C(=O)C=CC2=O` (stereo not given in full): the TGI is above 100 µM. Still for that read-out and setting: with `Fc1cc(C2=Nn3c(CNc4ccc(Cl)cc4)nnc3S/C2=C\c2ccc(-c3ccc(Cl)cc3)o2)c(Cl)cc1Cl` the figure was above 100 µM.

For `c1ccc(COCC[P+](c2ccccc2)(c2ccccc2)c2ccccc2)cc1`, the GI50 was 3.56 µM and the TGI worked out at 30.7 µM. Regarding `Cc1ccc(S(=O)(=O)NN=C2C(C)(C)CC2(C)C)cc1`, the TGI is above 100 µM.

Compound `C/C(=N\Nc1nc2ccccc2o1)c1ncccn1` came in with a TGI of 24.5 µM. `CC(C)COC(=O)c1ccc(N=Cc2ccc(C=Nc3ccc(C(=O)OCC(C)C)cc3)cc2)cc1`: the TGI is above 100 µM. For `COc1ccc(/C(=C/c2ccc3ccccc3c2)c2nn[nH]n2)cc1OC`, the GI50 was 6.88 µM and the TGI is above 100 µM. `Cc1cc2nc3c(=O)[nH]c(=O)nc-3n(CC(O)C(O)C(O)CO)c2cc1N` (stereo not given) had a TGI above 100 µM. On the same count and under the same terms, the value for `CCOc1ccc(N2C(=O)NC3(c4ccccc4)N(C)C(=O)N(C)C23c2ccccc2)cc1` (stereo not given) was above 100 µM; that for `Cc1cc(N(CCC#N)CCC#N)ccc1/C=C1N=C(/C=C/c2ccccc2)N(c2ccc(S(N)(=O)=O)cc2)C\1=O` was above 100 µM. On the same count and under the same terms, with `O=C1CC(C(=O)O)Cc2c(Br)ccc(O)c21` (stereo not given) the figure was above 100 µM. The same measure, in the same setting: the value for `O=C(c1cc(Cl)cc(Cl)c1)N(Cc1cccnc1)C(=S)N(Cc1cccnc1)C(=O)c1cc(Cl)cc(Cl)c1` was above 100 µM; that for `O=C1c2cccc([N+](=O)[O-])c2C(=O)c2nccnc21` was 4.05 µM; that for `CC(C)(Oc1ccc(C(=O)c2ccc(Cl)cc2)cc1Cl)C(=O)N1CCN(CCO)CC1` was above 10 µM. For the compound `COc1ccc(C2CC(c3ccccc3)=NN2C(=O)c2cc(OC)c(OC)c(OC)c2)cc1O` (stereo not given), the GI50 was 0.932 µM and the TGI was above 100 µM. For `CON=C1C[C@]2(C[C@@H]3C[C@@H](C/C=C(\C)C[C@@H](C)/C=C/C=C4\CO[C@@H]5[C@H](O)C(C)=C[C@@H](C(=O)O3)[C@]45O)O2)O[C@H](/C(C)=C/C(C)C)[C@H]1C`, in that order: 14.5 µM and 28 µM. On to `C1=Nc2ccccc2Cn2nncc21`, for which the TGI is above 100 µM. `CCC(=O)N(c1ccccc1)C(C)CN1CCC(O)(c2cccc(C(F)(F)F)c2)CC1` (stereo not given) had a TGI of 47.2 µM. Regarding `NC(=O)c1cc(I)ccc1NC(=O)/C=C/c1ccccc1Cl`, the GI50 was 1.72 µM. Consider `Cn1cnc([N+](=O)[O-])c1Sc1nc2ccccc2o1`, for which the TGI came out at 37.5 µM. On to `CN(C)c1ccc(/C=C(\C#N)c2ccccc2)cc1`, for which the GI50 was 2.47 µM and 3.44 µM and 7.37 µM; the TGI is above 100 µM. `C=C1C2C[C@@H]3O[C@H]4C[C@H]5O[C@@]6(C[C@@H]7O[C@]8(C[C@H](C)[C@@H]9O[C@@H]%10CC(C=O)O[C@@H]%10C[C@@H]9O8)C[C@H](C)[C@@H]7O6)C[C@H]5O[C@H]4[C@H](C)[C@H]3OC(=O)C[C@H]3CC[C@@H]4OC5[C@H]6O[C@]7(CC[C@H]8CC(=C)[C@H](CC[C@@H](C[C@H]1C)O2)O8)CC6O[C@@H]5[C@@H](O7)[C@H]4O3` (stereo not given in full): the TGI is below 0.0001 µM. Turning to `O=C1Nc2ccc(O)cc2/C1=C\c1ccncc1`, the GI50 was 11.9 µM and the TGI was 25.9 µM.

For `CCOC(CN(C)C(=O)Nc1ccc(Cl)c(Cl)c1)OCC`, the TGI was above 10 µM. On the same count and under the same terms, with `COC(=O)CC1C2(C)C3=C(C)C(c4ccoc4)CC3OC2C2OC(=O)C3(C)C=CC(=O)C1(C)C23` (stereo not given) the figure was 4.95 µM.

The compound `CC(C)NC(=O)OCc1nnn2c1CCC2` came in with a TGI above 100 µM. Still for that read-out and setting: with `Cc1ccc(N=NN(C)C(C)C(O)Cc2ccccc2)cc1` (stereo not given) the figure was above 100 µM; with `Fc1ccc(Oc2nc3ccccc3nc2-c2ccccc2)cc1`, above 100 µM; with `CC1=NNC(=O)C1C1CC(c2c[nH]c3ccccc23)=NN(c2ccccc2)C1=O` (stereo not given), above 100 µM. With `COc1ccc(N=N/C(=N\NC(=O)c2cc(Br)ccc2O)c2ccc(N(CCC#N)CCC#N)cc2OC)cc1`, the GI50 was 100 µg/mL and the TGI is above 150 µg/mL.

Turning to `CCN(CC)CCCC(C)Nc1c2ccc(Cl)cc2nc2cc(Cl)ccc12` (stereo not given), the TGI is 14.8 µM. For the compound `COC(O)C(=O)c1c2c(cc3c1CCC3)CCC2` (stereo not given), the TGI is above 100 µM. Same read-out and setting: with `Brc1c2c(c(Br)c3nsnc13)N=S=N2` the figure was above 100 µM.
